Results as given in patent publication CN110300763A.

Molecular target: 人CXCR3 (重组人CXCR3) (人) (UniProt P49682)
Assay: 结合动力学 (表5; method and antigen form not stated in Example 1)

UniProt P49682, sequence (P49682 whole entry): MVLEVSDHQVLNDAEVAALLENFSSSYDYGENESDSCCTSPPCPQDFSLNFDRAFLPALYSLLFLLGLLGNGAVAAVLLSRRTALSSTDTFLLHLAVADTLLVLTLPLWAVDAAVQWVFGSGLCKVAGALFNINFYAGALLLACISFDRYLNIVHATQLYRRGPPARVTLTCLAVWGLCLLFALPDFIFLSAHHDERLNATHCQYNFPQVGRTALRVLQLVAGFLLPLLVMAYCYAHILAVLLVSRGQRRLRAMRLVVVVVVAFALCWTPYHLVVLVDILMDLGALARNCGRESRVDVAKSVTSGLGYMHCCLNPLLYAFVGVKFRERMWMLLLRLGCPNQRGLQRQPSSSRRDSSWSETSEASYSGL

- Kd: 0.957 nM
- koff: 6.48e-05 s⁻¹
- kon: 67400 M⁻¹ s⁻¹
B1: 人源化抗CXCR3 mAb 53Hu37 (antibody, part only; not given: CH1 part and light constant region, part only)
heavy, part: EVQLLESGGGLVQPGGSLRLSCAASGFTFTSYAMSWVRQAPGKGLEWVATISHGGTYTYYPDSVKGRFTISRDNAKNTLYLQMNSLRAEDTAVYYCARHPIYSGNYQGYFDYWGQGTLVTVSSSLGTQTYICNVNHKPSNTKVDKKV[letters of human IgG1 Fc left out]
light, part: DIQLTQSPSFLSASVGDRVTITCRASSGVNYLYWYQQKPGKAPKLWIYFTSTLASGVPSRFSGSGSGNEYTLTISSLQPEDFATYYCQQFTSSPYTFGQGTKLEIK
